{
  "source": "the supplement of paper PMC10724272",
  "note": "MIC of invasive clinical C. tropicalis isolates, CLSI broth microdilution (fluconazole 0.12-256 mg/L, up to 1,024 for the azole-resistant cluster and its neighbour group; other ranges not stated); higher = less susceptible. Call: susceptible or wild type [S] / resistant or non-wild type [R] by CLSI breakpoints or cut-offs; intermediate and dose-dependent carry no call. '<=' and '>=' at the end values are inferred; the source marks only some of them. Isolates are numbered anew.",
  "data": [
    {"compound": "CCC(C)n1ncn(-c2ccc(N3CCN(c4ccc(OCC5COC(Cn6cncn6)(c6ccc(Cl)cc6Cl)O5)cc4)CC3)cc2)c1=O [itraconazole]", "experiment": "CLSI broth microdilution.", "values": [
      {"test system": "Candida tropicalis isolate 55 (ERG11 copies: 2, Erg11p: Y132F, S154F (heterozygous))", "MIC": "0.25 mg/L [S]"},
      {"test system": "Candida tropicalis isolate 302 (ERG11 copies: 2, Erg11p: no key change)", "MIC": "0.12 mg/L [S]"},
      {"test system": "Candida tropicalis isolate 12 (ERG11 copies: 2, Erg11p: no key change)", "MIC": "0.12 mg/L [S]"},
      {"test system": "Candida tropicalis isolate 354 (ERG11 copies: 2, Erg11p: Y132F, S154F (homozygous))", "MIC": "0.5 mg/L [S]"},
      {"test system": "Candida tropicalis isolate 447 (ERG11 copies: 2, Erg11p: no key change)", "MIC": "0.25 mg/L [S]"},
      {"test system": "Candida tropicalis isolate 350 (ERG11 copies: 2, Erg11p: no key change)", "MIC": "0.12 mg/L [S]"},
      {"test system": "Candida tropicalis isolate 277 (ERG11 copies: 2, Erg11p: no key change)", "MIC": "0.12 mg/L [S]"},
      {"test system": "Candida tropicalis isolate 117 (ERG11 copies: 8, Erg11p: Y132F, S154F, P397S (heterozygous))", "MIC": "1 mg/L [R]"},
      {"test system": "Candida tropicalis isolate 216 (ERG11 copies: 2, Erg11p: no key change)", "MIC": "0.12 mg/L [S]"},
      {"test system": "Candida tropicalis isolate 306 (ERG11 copies: 2, Erg11p: no key change)", "MIC": "0.12 mg/L [S]"},
      {"test system": "Candida tropicalis isolate 380 (ERG11 copies: 7, Erg11p: Y132F, S154F (heterozygous))", "MIC": "1 mg/L [R]"},
      {"test system": "Candida tropicalis isolate 1 (ERG11 copies: 2, Erg11p: no key change)", "MIC": "0.25 mg/L [S]"},
      {"test system": "Candida tropicalis isolate 369 (ERG11 copies: 2, Erg11p: no key change)", "MIC": "0.25 mg/L [S]"},
      {"test system": "Candida tropicalis isolate 280 (ERG11 copies: 2, Erg11p: no key change)", "MIC": "0.12 mg/L [S]"},
      {"test system": "Candida tropicalis isolate 21 (ERG11 copies: 2, Erg11p: G464S (homozygous))", "MIC": "1 mg/L [R]"},
      {"test system": "Candida tropicalis isolate 308 (ERG11 copies: 2, Erg11p: no key change)", "MIC": "0.25 mg/L [S]"},
      {"test system": "Candida tropicalis isolate 74 (ERG11 copies: 2, Erg11p: no key change)", "MIC": "0.12 mg/L [S]"},
      {"test system": "Candida tropicalis isolate 91 (ERG11 copies: 2, Erg11p: no key change)", "MIC": "0.12 mg/L [S]"},
      {"test system": "Candida tropicalis isolate 228 (ERG11 copies: 2, Erg11p: no key change)", "MIC": "1 mg/L [R]"},
      {"test system": "Candida tropicalis isolate 85 (ERG11 copies: 2, Erg11p: no key change)", "MIC": "0.5 mg/L [S]"},
      {"test system": "Candida tropicalis isolate 273 (ERG11 copies: 2, Erg11p: no key change)", "MIC": "0.06 mg/L [S]"},
      {"test system": "Candida tropicalis isolate 13 (ERG11 copies: 2, Erg11p: no key change)", "MIC": "0.25 mg/L [S]"},
      {"test system": "Candida tropicalis isolate 244 (ERG11 copies: 2, Erg11p: no key change)", "MIC": "0.25 mg/L [S]"},
      {"test system": "Candida tropicalis isolate 294 (ERG11 copies: 2, Erg11p: no key change)", "MIC": "0.25 mg/L [S]"},
      {"test system": "Candida tropicalis isolate 25 (ERG11 copies: 2, Erg11p: no key change)", "MIC": "0.12 mg/L [S]"},
      {"test system": "Candida tropicalis isolate 71 (ERG11 copies: 2, Erg11p: no key change)", "MIC": "0.5 mg/L [S]"},
      {"test system": "Candida tropicalis isolate 232 (ERG11 copies: 2, Erg11p: no key change)", "MIC": "0.25 mg/L [S]"},
      {"test system": "Candida tropicalis isolate 127 (ERG11 copies: 2, Erg11p: no key change)", "MIC": "0.12 mg/L [S]"},
      {"test system": "Candida tropicalis isolate 110 (ERG11 copies: 2, Erg11p: no key change)", "MIC": "0.5 mg/L [S]"},
      {"test system": "Candida tropicalis isolate 442 (ERG11 copies: 2, Erg11p: no key change)", "MIC": "0.06 mg/L [S]"},
      {"test system": "Candida tropicalis isolate 260 (ERG11 copies: 2, Erg11p: no key change)", "MIC": "0.12 mg/L [S]"},
      {"test system": "Candida tropicalis isolate 236 (ERG11 copies: 2, Erg11p: no key change)", "MIC": "0.25 mg/L [S]"},
      {"test system": "Candida tropicalis isolate 77 (ERG11 copies: 7, Erg11p: Y132F, S154F (heterozygous))", "MIC": "0.5 mg/L [S]"},
      {"test system": "Candida tropicalis isolate 199 (ERG11 copies: 2, Erg11p: Y257H (homozygous))", "MIC": "1 mg/L [R]"},
      {"test system": "Candida tropicalis isolate 406 (ERG11 copies: 2, Erg11p: no key change)", "MIC": "0.12 mg/L [S]"},
      {"test system": "Candida tropicalis isolate 15 (ERG11 copies: 2, Erg11p: no key change)", "MIC": "0.12 mg/L [S]"}
    ]},
    {"compound": "CC[C@H](C)C[C@H](C)CCCCCCCCC(=O)N[C@H]1C[C@@H](O)[C@@H](NCCN)NC(=O)[C@@H]2[C@@H](O)CCN2C(=O)[C@H]([C@H](O)CCN)NC(=O)[C@H]([C@H](O)[C@@H](O)c2ccc(O)cc2)NC(=O)[C@@H]2C[C@@H](O)CN2C(=O)[C@H]([C@@H](C)O)NC1=O [caspofungin]", "experiment": "CLSI broth microdilution.", "values": [
      {"test system": "Candida tropicalis isolate 55 (ERG11 copies: 2, Erg11p: Y132F, S154F (heterozygous))", "MIC": "0.03 mg/L [S]"},
      {"test system": "Candida tropicalis isolate 302 (ERG11 copies: 2, Erg11p: no key change)", "MIC": "0.25 mg/L [S]"},
      {"test system": "Candida tropicalis isolate 12 (ERG11 copies: 2, Erg11p: no key change)", "MIC": "0.06 mg/L [S]"},
      {"test system": "Candida tropicalis isolate 354 (ERG11 copies: 2, Erg11p: Y132F, S154F (homozygous))", "MIC": "0.03 mg/L [S]"},
      {"test system": "Candida tropicalis isolate 447 (ERG11 copies: 2, Erg11p: no key change)", "MIC": "0.12 mg/L [S]"},
      {"test system": "Candida tropicalis isolate 350 (ERG11 copies: 2, Erg11p: no key change)", "MIC": "0.03 mg/L [S]"},
      {"test system": "Candida tropicalis isolate 277 (ERG11 copies: 2, Erg11p: no key change)", "MIC": "0.06 mg/L [S]"},
      {"test system": "Candida tropicalis isolate 117 (ERG11 copies: 8, Erg11p: Y132F, S154F, P397S (heterozygous))", "MIC": "0.03 mg/L [S]"},
      {"test system": "Candida tropicalis isolate 216 (ERG11 copies: 2, Erg11p: no key change)", "MIC": "0.03 mg/L [S]"},
      {"test system": "Candida tropicalis isolate 306 (ERG11 copies: 2, Erg11p: no key change)", "MIC": "0.03 mg/L [S]"},
      {"test system": "Candida tropicalis isolate 380 (ERG11 copies: 7, Erg11p: Y132F, S154F (heterozygous))", "MIC": "0.03 mg/L [S]"},
      {"test system": "Candida tropicalis isolate 1 (ERG11 copies: 2, Erg11p: no key change)", "MIC": "0.12 mg/L [S]"},
      {"test system": "Candida tropicalis isolate 369 (ERG11 copies: 2, Erg11p: no key change)", "MIC": "0.03 mg/L [S]"},
      {"test system": "Candida tropicalis isolate 280 (ERG11 copies: 2, Erg11p: no key change)", "MIC": "0.03 mg/L [S]"},
      {"test system": "Candida tropicalis isolate 21 (ERG11 copies: 2, Erg11p: G464S (homozygous))", "MIC": "0.06 mg/L [S]"},
      {"test system": "Candida tropicalis isolate 308 (ERG11 copies: 2, Erg11p: no key change)", "MIC": "0.03 mg/L [S]"},
      {"test system": "Candida tropicalis isolate 74 (ERG11 copies: 2, Erg11p: no key change)", "MIC": "0.03 mg/L [S]"},
      {"test system": "Candida tropicalis isolate 91 (ERG11 copies: 2, Erg11p: no key change)", "MIC": "0.25 mg/L [S]"},
      {"test system": "Candida tropicalis isolate 228 (ERG11 copies: 2, Erg11p: no key change)", "MIC": "0.03 mg/L [S]"},
      {"test system": "Candida tropicalis isolate 85 (ERG11 copies: 2, Erg11p: no key change)", "MIC": "0.03 mg/L [S]"},
      {"test system": "Candida tropicalis isolate 273 (ERG11 copies: 2, Erg11p: no key change)", "MIC": "0.03 mg/L [S]"},
      {"test system": "Candida tropicalis isolate 13 (ERG11 copies: 2, Erg11p: no key change)", "MIC": "0.06 mg/L [S]"},
      {"test system": "Candida tropicalis isolate 244 (ERG11 copies: 2, Erg11p: no key change)", "MIC": "0.03 mg/L [S]"},
      {"test system": "Candida tropicalis isolate 294 (ERG11 copies: 2, Erg11p: no key change)", "MIC": "0.03 mg/L [S]"},
      {"test system": "Candida tropicalis isolate 25 (ERG11 copies: 2, Erg11p: no key change)", "MIC": "0.06 mg/L [S]"},
      {"test system": "Candida tropicalis isolate 71 (ERG11 copies: 2, Erg11p: no key change)", "MIC": "0.015 mg/L [S]"},
      {"test system": "Candida tropicalis isolate 232 (ERG11 copies: 2, Erg11p: no key change)", "MIC": "0.03 mg/L [S]"},
      {"test system": "Candida tropicalis isolate 127 (ERG11 copies: 2, Erg11p: no key change)", "MIC": "0.03 mg/L [S]"},
      {"test system": "Candida tropicalis isolate 110 (ERG11 copies: 2, Erg11p: no key change)", "MIC": "0.03 mg/L [S]"},
      {"test system": "Candida tropicalis isolate 442 (ERG11 copies: 2, Erg11p: no key change)", "MIC": "0.03 mg/L [S]"},
      {"test system": "Candida tropicalis isolate 260 (ERG11 copies: 2, Erg11p: no key change)", "MIC": "0.03 mg/L [S]"},
      {"test system": "Candida tropicalis isolate 236 (ERG11 copies: 2, Erg11p: no key change)", "MIC": "0.03 mg/L [S]"},
      {"test system": "Candida tropicalis isolate 77 (ERG11 copies: 7, Erg11p: Y132F, S154F (heterozygous))", "MIC": "0.03 mg/L [S]"},
      {"test system": "Candida tropicalis isolate 199 (ERG11 copies: 2, Erg11p: Y257H (homozygous))", "MIC": "0.015 mg/L [S]"},
      {"test system": "Candida tropicalis isolate 406 (ERG11 copies: 2, Erg11p: no key change)", "MIC": "0.06 mg/L [S]"},
      {"test system": "Candida tropicalis isolate 15 (ERG11 copies: 2, Erg11p: no key change)", "MIC": "0.06 mg/L [S]"}
    ]},
    {"compound": "Nc1[nH]c(=O)ncc1F [flucytosine]", "experiment": "CLSI broth microdilution.", "values": [
      {"test system": "Candida tropicalis isolate 55 (ERG11 copies: 2, Erg11p: Y132F, S154F (heterozygous))", "MIC": "≤ 0.06 mg/L [S]"},
      {"test system": "Candida tropicalis isolate 302 (ERG11 copies: 2, Erg11p: no key change)", "MIC": "≤ 0.06 mg/L [S]"},
      {"test system": "Candida tropicalis isolate 12 (ERG11 copies: 2, Erg11p: no key change)", "MIC": "0.12 mg/L [S]"},
      {"test system": "Candida tropicalis isolate 354 (ERG11 copies: 2, Erg11p: Y132F, S154F (homozygous))", "MIC": "≤ 0.06 mg/L [S]"},
      {"test system": "Candida tropicalis isolate 447 (ERG11 copies: 2, Erg11p: no key change)", "MIC": "≤ 0.06 mg/L [S]"},
      {"test system": "Candida tropicalis isolate 350 (ERG11 copies: 2, Erg11p: no key change)", "MIC": "≤ 0.06 mg/L [S]"},
      {"test system": "Candida tropicalis isolate 277 (ERG11 copies: 2, Erg11p: no key change)", "MIC": "0.12 mg/L [S]"},
      {"test system": "Candida tropicalis isolate 117 (ERG11 copies: 8, Erg11p: Y132F, S154F, P397S (heterozygous))", "MIC": "≤ 0.06 mg/L [S]"},
      {"test system": "Candida tropicalis isolate 216 (ERG11 copies: 2, Erg11p: no key change)", "MIC": "≤ 0.06 mg/L [S]"}
    ]}
  ]
}
